Results published in PMC4631479, “The structure of the GemC1 coiled coil and its interaction with the Geminin family of coiled-coil proteins” (Acta Crystallographica Section D: Biological Crystallography, 2015).
No constants are given. Whether binding was seen depends on the method and setting. Binding seen in cells or lysates may run through a third protein. Some results given as binding are weak or reduced against the parent protein; the word gives no strength. Tags and fused reporters may be left off the sequences shown.

T1: dGemC1 (29-240), His-tagged (human) (UniProt A6NCL1)
T1 sequence: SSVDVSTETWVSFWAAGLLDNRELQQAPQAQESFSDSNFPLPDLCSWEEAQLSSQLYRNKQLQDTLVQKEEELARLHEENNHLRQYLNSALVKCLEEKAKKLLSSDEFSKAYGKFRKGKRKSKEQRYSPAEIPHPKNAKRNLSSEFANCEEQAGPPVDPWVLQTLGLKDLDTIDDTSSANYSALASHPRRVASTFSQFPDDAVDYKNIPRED

T2: HA-tagged GemC1 (human) (UniProt A6NCL1)
T2 sequence: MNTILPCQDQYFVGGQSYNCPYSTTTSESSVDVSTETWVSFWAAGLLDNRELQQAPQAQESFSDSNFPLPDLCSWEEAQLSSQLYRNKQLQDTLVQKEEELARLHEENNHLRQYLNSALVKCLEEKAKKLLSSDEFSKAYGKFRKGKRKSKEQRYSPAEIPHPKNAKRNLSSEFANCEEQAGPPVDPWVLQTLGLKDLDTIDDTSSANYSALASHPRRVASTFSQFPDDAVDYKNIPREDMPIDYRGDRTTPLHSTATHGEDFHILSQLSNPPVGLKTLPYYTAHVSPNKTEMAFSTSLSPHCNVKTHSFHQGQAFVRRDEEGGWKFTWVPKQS

T3: HA-tagged GemC1 (human), A6NCL1
T3 chain: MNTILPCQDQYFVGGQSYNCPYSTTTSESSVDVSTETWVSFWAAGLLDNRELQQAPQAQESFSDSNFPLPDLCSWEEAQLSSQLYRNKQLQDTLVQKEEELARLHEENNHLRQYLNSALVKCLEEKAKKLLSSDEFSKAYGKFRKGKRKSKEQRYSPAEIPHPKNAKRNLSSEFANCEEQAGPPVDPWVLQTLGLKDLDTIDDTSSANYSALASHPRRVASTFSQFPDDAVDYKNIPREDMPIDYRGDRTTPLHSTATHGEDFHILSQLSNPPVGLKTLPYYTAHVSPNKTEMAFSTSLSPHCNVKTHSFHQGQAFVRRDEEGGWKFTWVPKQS


Columns and labels:
[1] = target: T1, dGemC1 (29-240), His-tagged (human); assay: pull-down; co-expression in bacteria of the His-tagged protein (GemC1 or Idas construct) with untagged Geminin construct; purification by IMAC (Ni2+ affinity) on the tag, Coomassie-stained gel; 50 mM HEPES-NaOH pH 7.5, 150 mM NaCl, 0.5 mM TCEP
HA-tagged GemC1 (human) = target: T2, HA-tagged GemC1 (human); assay: co-IP; U2OS cells transfected with GemC1-HA alone or with GFP-tagged constructs, collected 24 h after transfection; anti-HA (12CA5) immunoprecipitation, blots with anti-HA, anti-GFP and anti-Geminin
[2] = target: T3, HA-tagged GemC1 (human), A6NCL1; assay: as above; details: remark: other sources report otherwise

Row | Binder | binding (HA-tagged GemC1 (human)) | also measured
1 | dGeminin (29-209), untagged (domain or fragment, UniProt O75496 29-209) IQPSASGSLVGRENELSAGLSKRKHRNDHLTSTTSSPGVIVPESSENKNLGGVTQESFDLMIKENPSSQYWKEVAEKRRKALYEALKENEKLHKEIEQKDNEIARLKKENKELAEVAEHVQYMAELIERLNGEPLDNFESLDNQEFDSEEETVEDSLVEDSEIGTCAEGTVSSSTDAKPCI | – | binding [1]: binds
2 | endogenous Geminin (protein, UniProt O75496 1-209) MNPSMKQKQEEIKENIKNSSVPRRTLKMIQPSASGSLVGRENELSAGLSKRKHRNDHLTSTTSSPGVIVPESSENKNLGGVTQESFDLMIKENPSSQYWKEVAEKRRKALYEALKENEKLHKEIEQKDNEIARLKKENKELAEVAEHVQYMAELIERLNGEPLDNFESLDNQEFDSEEETVEDSLVEDSEIGTCAEGTVSSSTDAKPCI | binds | –
3 | Geminin-GFP (protein, UniProt O75496 1-209) MNPSMKQKQEEIKENIKNSSVPRRTLKMIQPSASGSLVGRENELSAGLSKRKHRNDHLTSTTSSPGVIVPESSENKNLGGVTQESFDLMIKENPSSQYWKEVAEKRRKALYEALKENEKLHKEIEQKDNEIARLKKENKELAEVAEHVQYMAELIERLNGEPLDNFESLDNQEFDSEEETVEDSLVEDSEIGTCAEGTVSSSTDAKPCI | binds | –
4 | Idas-GFP (protein, UniProt D6RGH6 1-385) MQACGGGAAGRRAFDSICPNRMLALPGRALLCKPGKPERKFAPPRKFFPGCTGGSPVSVYEDPPDAEPTALPALTTIDLQDLADCSSLLGSDAPPGGDLAASQNHSHQTEADFNLQDFRDTVDDLISDSSSMMSPTLASGDFPFSPCDISPFGPCLSPPLDPRALQSPPLRPPDVPPPEQYWKEVADQNQRALGDALVENNQLHVTLTQKQEEIASLKERNVQLKELASRTRHLASVLDKLMITQSRDCGAAAEPFLLKAKAKRSLEELVSAAGQDCAEVDAILREISERCDEALQSRDPKRPRLLPEPANTDTRPGNLHGAFRGLRTDCSRSALNLSHSELEEGGSFSTRIRSHSTIRTLAFPQGNAFTIRTANGGYKFRWVPS | binds weakly | –
5 | Geminin(1-72)-GFP (domain or fragment, UniProt O75496 1-72) MNPSMKQKQEEIKENIKNSSVPRRTLKMIQPSASGSLVGRENELSAGLSKRKHRNDHLTSTTSSPGVIVPES | no binding | –
6 | Cdt1-GFP, Q9H211 1-546 (protein) MEQRRVTDFFARRRPGPPRIAPPKLACRTPSPARPALRAPASATSGSRKRARPPAAPGRDQARPPARRRLRLSVDEVSSPSTPEAPDIPACPSPGQKIKKSTPAAGQPPHLTSAQDQDTISELASCLQRARELGARVRALKASAQDAGESCTPEAEGRPEEPCGEKAPAYQRFHALAQPGLPGLVLPYKYQVLAEMFRSMDTIVGMLHNRSETPTFAKVQRGVQDMMRRRFEECNVGQIKTVYPASYRFRQERSVPTFKDGTRRSDYQLTIEPLLEQEADGAAPQLTASRLLQRRQIFSQKLVEHVKEHHKAFLASLSPAMVVPEDQLTRWHPRFNVDEVPDIEPAALPQPPATEKLTTAQEVLARARNLISPRMEKALSQLALRSAAPSSPGSPRPALPATPPATPPAASPSALKGVSQDLLERIRAKEAQKQLAQMTRCPEQEQRLQRLERLPELARVLRSVFVSERKPALSMEVACARMVGSCCTIMSPGEMEKHLLLLSELLPDWLSLHRIRTDTYVKLDKAADLAHITARLAHQTRAEEGL | – | binding [2]: no binding
